Source: patent US20110158938A1 (INSERM INSTITUT NATIONAL DE LA SANTE ET DE LA RECHERCHE …, published 2011)

T1: IL-2Rβ on TF-1β cells (human, UniProt P14784 27-551)
T1 sequence (looked up): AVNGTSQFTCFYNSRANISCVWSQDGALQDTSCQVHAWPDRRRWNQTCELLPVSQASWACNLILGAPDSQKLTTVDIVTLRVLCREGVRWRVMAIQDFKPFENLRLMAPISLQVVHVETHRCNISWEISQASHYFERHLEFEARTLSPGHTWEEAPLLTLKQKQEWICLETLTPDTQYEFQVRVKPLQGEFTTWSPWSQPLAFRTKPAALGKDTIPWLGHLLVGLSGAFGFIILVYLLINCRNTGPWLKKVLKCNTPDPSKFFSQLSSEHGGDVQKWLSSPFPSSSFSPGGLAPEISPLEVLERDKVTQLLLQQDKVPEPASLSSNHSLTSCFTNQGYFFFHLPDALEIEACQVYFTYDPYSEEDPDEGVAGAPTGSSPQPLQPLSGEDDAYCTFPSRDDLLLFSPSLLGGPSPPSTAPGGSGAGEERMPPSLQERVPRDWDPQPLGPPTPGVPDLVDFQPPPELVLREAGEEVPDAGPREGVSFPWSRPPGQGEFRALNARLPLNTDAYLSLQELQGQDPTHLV

B1: FLAG-IL-15 wild type (ligand)
chain: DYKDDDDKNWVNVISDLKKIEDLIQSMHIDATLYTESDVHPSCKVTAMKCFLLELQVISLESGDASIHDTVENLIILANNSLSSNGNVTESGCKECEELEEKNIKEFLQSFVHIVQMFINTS
notes: Secreted from 293 c18 cells through the rat preprolactin signal peptide; tested as culture supernatant; also called WT
B2: FLAG-IL-15 I68D (ligand)
chain: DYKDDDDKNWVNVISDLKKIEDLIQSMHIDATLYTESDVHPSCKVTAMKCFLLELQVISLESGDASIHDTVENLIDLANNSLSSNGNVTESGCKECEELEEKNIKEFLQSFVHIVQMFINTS
notes: also called 168D
B3: FLAG-IL-15 N65K (ligand)
chain: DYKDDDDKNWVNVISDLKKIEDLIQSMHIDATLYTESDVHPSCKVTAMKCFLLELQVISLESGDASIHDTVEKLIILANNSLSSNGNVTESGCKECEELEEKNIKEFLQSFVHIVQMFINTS
B4: FLAG-IL-15 I50D (ligand)
chain: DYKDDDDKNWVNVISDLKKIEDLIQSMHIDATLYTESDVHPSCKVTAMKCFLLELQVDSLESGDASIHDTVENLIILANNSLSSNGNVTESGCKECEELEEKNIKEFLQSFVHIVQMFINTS
B5: FLAG-IL-15 S51D (ligand)
chain: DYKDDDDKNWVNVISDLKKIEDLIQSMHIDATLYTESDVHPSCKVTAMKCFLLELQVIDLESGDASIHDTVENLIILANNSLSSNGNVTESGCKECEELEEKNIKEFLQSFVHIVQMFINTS
B6: FLAG-IL-15 L45E (ligand)
chain: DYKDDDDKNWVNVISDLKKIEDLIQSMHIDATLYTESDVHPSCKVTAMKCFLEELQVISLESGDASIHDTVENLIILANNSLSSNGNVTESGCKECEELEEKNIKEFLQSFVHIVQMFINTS
B7: FLAG-IL-15 L45D (ligand)
chain: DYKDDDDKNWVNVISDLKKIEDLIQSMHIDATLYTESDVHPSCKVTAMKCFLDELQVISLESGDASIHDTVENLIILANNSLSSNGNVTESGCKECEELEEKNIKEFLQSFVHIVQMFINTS
B8: FLAG-IL-15 V49D (ligand)
chain: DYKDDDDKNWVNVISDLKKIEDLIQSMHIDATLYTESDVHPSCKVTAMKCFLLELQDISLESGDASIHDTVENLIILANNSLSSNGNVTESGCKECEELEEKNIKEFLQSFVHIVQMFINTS
B9: FLAG-IL-15 Q48K (ligand)
chain: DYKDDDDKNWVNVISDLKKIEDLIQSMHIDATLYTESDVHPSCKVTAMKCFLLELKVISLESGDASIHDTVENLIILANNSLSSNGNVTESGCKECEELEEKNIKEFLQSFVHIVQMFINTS
B10: FLAG-IL-15 L69R (ligand)
chain: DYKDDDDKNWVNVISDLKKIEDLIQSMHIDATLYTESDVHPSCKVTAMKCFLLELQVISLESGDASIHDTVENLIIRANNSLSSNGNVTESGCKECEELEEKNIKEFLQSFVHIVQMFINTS
B11: FLAG-IL-15 I67D (ligand)
chain: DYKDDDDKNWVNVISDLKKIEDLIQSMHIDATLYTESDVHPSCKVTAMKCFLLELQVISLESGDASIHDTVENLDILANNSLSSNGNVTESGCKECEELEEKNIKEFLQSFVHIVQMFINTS
B12: FLAG-IL-15 L66E (ligand)
chain: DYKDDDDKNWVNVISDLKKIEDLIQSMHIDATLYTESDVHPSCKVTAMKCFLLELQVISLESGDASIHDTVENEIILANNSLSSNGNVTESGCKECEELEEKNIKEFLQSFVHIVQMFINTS
B13: FLAG-IL-15 I67E (ligand)
chain: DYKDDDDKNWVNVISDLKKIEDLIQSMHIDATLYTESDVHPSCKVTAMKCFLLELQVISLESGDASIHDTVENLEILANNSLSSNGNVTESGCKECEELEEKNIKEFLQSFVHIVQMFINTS
B14: FLAG-IL-15 L52D (ligand)
chain: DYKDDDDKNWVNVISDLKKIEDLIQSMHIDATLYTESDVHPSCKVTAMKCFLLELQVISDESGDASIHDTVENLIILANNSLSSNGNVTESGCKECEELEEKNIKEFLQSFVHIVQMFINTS
B15: FLAG-IL-15 E46K (ligand)
chain: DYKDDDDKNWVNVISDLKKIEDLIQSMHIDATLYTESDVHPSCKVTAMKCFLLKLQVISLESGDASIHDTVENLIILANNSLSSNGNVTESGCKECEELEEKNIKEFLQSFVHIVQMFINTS
B16: FLAG-IL-15 L66D (ligand)
chain: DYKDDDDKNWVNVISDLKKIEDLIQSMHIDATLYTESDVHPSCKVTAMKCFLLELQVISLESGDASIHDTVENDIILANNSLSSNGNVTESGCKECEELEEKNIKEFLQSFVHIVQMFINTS
B17: FLAG-IL-15 E64K (ligand)
chain: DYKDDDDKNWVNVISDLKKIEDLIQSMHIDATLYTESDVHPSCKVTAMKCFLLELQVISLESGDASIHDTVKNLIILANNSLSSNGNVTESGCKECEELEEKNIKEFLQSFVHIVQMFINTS

What was measured:
[1] = molecular target: T2, IL-15Rα expressed by TF-1 cells (human, UniProt Q13261 31-267); assay: cell-based or functional assay
[2] = molecular target: T2, IL-15Rα expressed by TF-1 cells; assay: competition with 80 pM [125I]-rIL-15 on TF-1 cells
Protocol: Human rIL-15 was radio-labeled with [¹²⁵I]-iodine (specific radioactivity of around 2000 cpm/finol) using a chloramine T method (34), and binding experiments were performed as described previously (12). Non specific binding was determined in the presence of 100 fold excess of unlabeled cytokine. For the IL-15 binding experiments, TF-1 cells were incubated with increasing concentrations of labeled rIL-15. Regression analysis of the binding data was accomplished using a one-site equilibrium binding equation (Grafit, Erithacus Software, Staines, UK) and data was plotted in the Scatchard coordinate system. For inhibition of IL-15 binding experiments, TF-1 cells were incubated with a fixed concentration of iodinated rIL-15 and increasing concentrations of FLAG-IL-15 or mutants or mAbs. Regression analysis of data was accomplished using a 4 parameter logistic equation (Grafit, Erithacus Software).
FLAG-IL-15 and mutants were then assayed for their ability to bind IL-15Rα expressed by TF-1 cells (FIGS. 4A, 4B, 4C). For that purpose, a competition assay was used that allowed to compare the efficiencies of the different mutants to inhibit the binding of a low, non-saturating concentration of radio-iodinated rIL-15 to TF-1 cells. The competition curves are shown in FIG. 4A, 4B, 4C and the concentrations of mutants giving half maximal inhibitory effects (IC50s) are listed in Table I.

[3] = molecular target: T2, IL-15Rα expressed by TF-1 cells; assay: competition with 80 pM [125I]-rIL-15 on TF-1 cells (Example 2)
IL-2Rβ on TF-1β cells [4] = molecular target: T1, IL-2Rβ on TF-1β cells; assay: cell-based or functional assay
[5] = molecular target: T2, IL-15Rα expressed by TF-1 cells; assay: cell-based or functional assay; remark: listed apart in the source
[6] = molecular target: T2, IL-15Rα expressed by TF-1 cells; assay: competition with [125I]-rIL-15 on TF-1 cells
IL-2Rβ on TF-1β cells [7] = molecular target: T1, IL-2Rβ on TF-1β cells; assay: cell-based or functional assay; remark: listed apart in the source

T2 sequence (Q13261 31-267): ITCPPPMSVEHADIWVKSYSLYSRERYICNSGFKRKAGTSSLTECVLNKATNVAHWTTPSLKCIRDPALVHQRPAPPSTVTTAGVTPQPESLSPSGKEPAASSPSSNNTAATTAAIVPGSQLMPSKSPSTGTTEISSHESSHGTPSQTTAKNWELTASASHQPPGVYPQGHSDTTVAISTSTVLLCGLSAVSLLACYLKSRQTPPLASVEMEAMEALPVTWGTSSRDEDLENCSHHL

Row | Binder | EC50 (pM), TF-1β proliferation [1] | Relative activity (% WT), TF-1β proliferation [1] | IC50 [2] | Relative activity (% WT) [2] | IC50 [3] | Relative activity (% WT) [3] | EC50 (pM), TF-1β proliferation (IL-2Rβ on TF-1β cells [4]) | Maximal induction (% WT), TF-1β proliferation (IL-2Rβ on TF-1β cells [4]) | IC50 of inhibition of IL-15 induced TF-1β proliferation in presence of A41 [5] | Relative activity (% WT), TF-1β proliferation (IL-2Rβ on TF-1β cells [4]) | Maximal induction (% WT), TF-1β proliferation [1] | fold reduction of affinity against wild-type IL-15 [6] | maximal response of TF-1β proliferation (% of wild-type IL-15) (IL-2Rβ on TF-1β cells [7])
1 | B1 | 6 pM | 100 % WT | 0.0261 nM | 100 % WT | 0.0236 nM | 100 % WT |  |  |  |  |  |  | 
2 | B2 |  |  | 0.0202 nM | 129 % WT |  |  | ~0.8 pM | 20 % WT |  |  |  |  | 
3 | B3 |  |  | 0.0266 nM | 98 % WT |  |  | > 200 pM | 0 % WT | 0.012 nM | < 0.4 % WT |  |  | 
4 | B4 | > 60 pM | < 10 % WT | 2.95 nM | 0.88 % WT |  |  |  |  |  |  | > 10 % WT |  | 
5 | B5 | 1.9 pM | 316 % WT | 0.0116 nM | 225 % WT |  |  |  |  |  |  | 100 % WT |  | 
6 | B6 | 2.4 pM | 250 % WT | 0.0125 nM | 209 % WT |  |  |  |  |  |  | 100 % WT |  | 
7 | B7 | 1.7 pM | 353 % WT | 0.0101 nM | 258 % WT |  |  |  |  |  |  | 100 % WT |  | 
8 | B8 |  |  | 0.348 nM | 8 % WT |  |  |  |  |  |  |  | 13 fold | 
9 | B9 | 4.8 pM | 125 % WT | 0.0205 nM | 127 % WT |  |  |  |  |  |  | 100 % WT |  | 
10 | B10 |  |  |  |  | 0.0091 nM | 259 % WT |  |  |  |  |  |  | ~2%
11 | B11 | > 30 pM | < 3 % WT | 0.105 nM | 25 % WT |  |  |  |  |  |  | > 40 % WT |  | 
12 | B12 | > 200 pM | < 0.4 % WT | 0.407 nM | 6 % WT |  |  |  |  |  |  | 0 % WT |  | 
13 | B13 | > 10 pM | < 8 % WT | 0.0637 nM | 41 % WT |  |  |  |  |  |  | > 75 % WT |  | 
14 | B14 | 1.7 pM | 353 % WT | 0.0109 nM | 239 % WT |  |  |  |  |  |  | 100 % WT |  | 
15 | B15 | > 1300 pM | < 0.5 % WT | 13.3 nM | 0.2 % WT |  |  |  |  |  |  | > 20 % WT |  | 
16 | B16 | > 200 pM | < 0.4 % WT | 0.191 nM | 14 % WT |  |  |  |  |  |  | 0 % WT |  | 
17 | B17 |  |  | 0.0182 nM | 143 % WT |  |  | ~0.8 pM |  |  |  |  |  | 
